B1: S006-NB146-3 (Fc fusion)
chain: EVQVVESGGGLVQSGGSLRLSCAASGAIFTSNAMDYAMGWYRQVSGKQREWVATITSDDDTNYGDSAKGRFTISRDSAKNTAYLQMNSLKPEDTAVYYCFANVRSDRSTLYRNYWGQGTQVTVSS[letters of human IgG1 Fc with changes left out]
notes: tested as VHH-Fc (VHH with human IgG1 hinge and Fc)
B2: S006-NB146-40 (Fc fusion)
chain: QVQLVESGGGLVQSGGSLRLSCAASGSIFTSNDMDYAMGWYRQVSGKQREWVATITSDEDTNYGDSVKGRFTISRDSAKNTAYLQMNSLKPEDTAVYYCFANLRSDRSTLYRNYWGQGTQVTVSS[letters of human IgG1 Fc with changes left out]
notes: as for B1
B3: S006-NB146-20 (Fc fusion)
chain: EVQLVESGGGSVQAGGSLRLSCGTPQSWFRLSSYVMNWYRQAPGKRRELVAEITQDDTTNYTPSVKGRFAISRDNANNTVHLQMNSLKPEDTAVYYCNTIQIWGQGTQVTVSS[letters of human IgG1 Fc with changes left out]
notes: as for B1
B4: S006-NB146-39 (Fc fusion)
chain: EVQLVESGGGLVQPGESLRLSCTAPGIILDYYPIGWFRQAPGKEREGVAFITNSDDSTIYTNYADSVKGRFTISREKNTVYLQMNSLKPEDTALYYCAARSTYIVGRNENALNSSDYDYWGQGTQVTVSS[letters of human IgG1 Fc with changes left out]
notes: as for B1
B5: S006-NB146-46 (Fc fusion)
chain: QLQLVESGGGLVQPGGSLRLSCTAPGIVLDYYPIGWFRQAPGKEREGVSFITNSDDSTIYTNYADSVKGRFTISREKNTVYLQMNSLKPEDTAVYYCAARSTYIVGRNENALNASDYDYWGQGTQVTVSS[letters of human IgG1 Fc with changes left out]
notes: as for B1
B6: S006-NB147-25 (Fc fusion)
chain: QLQLVESGGGLVQAGGSLRLSCKASGVTFSINALGWYRQAPGKQREMVAVISSGGSTNYVDSVKGRFTISRDNAKNTVYLQMNSLKPEDTAVYYCNADVVGSSWSPEYDYWGQGTQVTVST[letters of human IgG1 Fc with changes left out]
notes: as for B1
B7: S006-NB146-69 (Fc fusion)
chain: EVQVVESGGGLVQAGGSLSLSCAASGSIFTINIMGWYRQAPGKQRELVAQINRVGDTNYPNSMAERFTISRDNAKNTMYLQMNTLKPEDTAVYYCNADIVESGRYSGKDYWGKGTLVTVSL[letters of human IgG1 Fc with changes left out]
notes: as for B1
B8: S006-NB146-139 (Fc fusion)
chain: QLQLVESGGGLVQPGGSLRLSCAAPGIILDYYPIGWFRQAPGKEREGVSYITSSDDSTVYTYYTDSVKGRFTISRGKNTVYLQMNSLKPEDTAVYYCAARSTYIVGRNYHTLNSSDFDYWGQGTQVTVSS[letters of human IgG1 Fc with changes left out]
notes: as for B1

How the values were obtained:
human CD33-his protein [1] = target: T1, human CD33-his protein (human, UniProt P20138 18-259); experiment: competition ELISA, coated human CD33-his, vs Biotin-C33B904 at EC80; antibody 250.00 nM
T1 construct: range 18-259; bought protein; also called hCD33-his; recombinant human CD33-his; not shown: His tag

human CD33-his protein [2] = target: T1, human CD33-his protein; experiment: competition ELISA, coated human CD33-his, vs Biotin-C33B904 at EC80; antibody 7.81 nM
human CD33-his protein [3] = target: T1, human CD33-his protein; experiment: competition ELISA, coated human CD33-his, vs Biotin-C33B904 at EC80; antibody 0 nM (no competitor)
human CD33-his protein [4] = target: T1, human CD33-his protein; experiment: competition ELISA, coated human CD33-his, vs Biotin-C33B904 at EC80; antibody 62.50 nM
human CD33-his protein [5] = target: T1, human CD33-his protein; experiment: competition ELISA, coated human CD33-his, vs Biotin-C33B904 at EC80; antibody 0.49 nM
human CD33-his protein [6] = target: T1, human CD33-his protein; experiment: competition ELISA, coated human CD33-his, vs Biotin-C33B904 at EC80; antibody 31.25 nM
human CD33-his protein [7] = target: T1, human CD33-his protein; experiment: competition ELISA, coated human CD33-his, vs Biotin-C33B904 at EC80; antibody 0.98 nM
human CD33-his protein [8] = target: T1, human CD33-his protein; experiment: competition ELISA, coated human CD33-his, vs Biotin-C33B904 at EC80; antibody 500 nM
human CD33-his protein [9] = target: T1, human CD33-his protein; experiment: competition ELISA, coated human CD33-his, vs Biotin-C33B904 at EC80; antibody 3.91 nM
human CD33-his protein [10] = target: T1, human CD33-his protein; experiment: competition ELISA, coated human CD33-his, vs Biotin-C33B904 at EC80; antibody 1.95 nM
human CD33-his protein [11] = target: T1, human CD33-his protein; experiment: competition ELISA, coated human CD33-his, vs Biotin-C33B904 at EC80; antibody 125.00 nM
human CD33-his protein [12] = target: T1, human CD33-his protein; experiment: competition ELISA, coated human CD33-his, vs Biotin-C33B904 at EC80; antibody 15.63 nM
human CD33-his protein [13] = target: T1, human CD33-his protein; experiment: competition ELISA, coated human CD33-his, vs Biotin-C33B904 at EC80; antibody 0 nM (no competitor); remark: listed apart in the source
human CD33-his protein [14] = target: T1, human CD33-his protein; experiment: competition ELISA, coated human CD33-his, vs Biotin-C33B904 at EC80; antibody 7.81 nM; remark: listed apart in the source
human CD33-his protein [15] = target: T1, human CD33-his protein; experiment: competition ELISA, coated human CD33-his, vs Biotin-C33B904 at EC80; antibody 0.98 nM; remark: listed apart in the source
human CD33-his protein [16] = target: T1, human CD33-his protein; experiment: competition ELISA, coated human CD33-his, vs Biotin-C33B904 at EC80; antibody 500 nM; remark: listed apart in the source
human CD33-his protein [17] = target: T1, human CD33-his protein; experiment: competition ELISA, coated human CD33-his, vs Biotin-C33B904 at EC80; antibody 3.91 nM; remark: listed apart in the source
human CD33-his protein [18] = target: T1, human CD33-his protein; experiment: competition ELISA, coated human CD33-his, vs Biotin-C33B904 at EC80; antibody 31.25 nM; remark: listed apart in the source
human CD33-his protein [19] = target: T1, human CD33-his protein; experiment: competition ELISA, coated human CD33-his, vs Biotin-C33B904 at EC80; antibody 62.50 nM; remark: listed apart in the source
human CD33-his protein [20] = target: T1, human CD33-his protein; experiment: competition ELISA, coated human CD33-his, vs Biotin-C33B904 at EC80; antibody 125.00 nM; remark: listed apart in the source
human CD33-his protein [21] = target: T1, human CD33-his protein; experiment: competition ELISA, coated human CD33-his, vs Biotin-C33B904 at EC80; antibody 0.49 nM; remark: listed apart in the source
human CD33-his protein [22] = target: T1, human CD33-his protein; experiment: competition ELISA, coated human CD33-his, vs Biotin-C33B904 at EC80; antibody 250.00 nM; remark: listed apart in the source
human CD33-his protein [23] = target: T1, human CD33-his protein; experiment: competition ELISA, coated human CD33-his, vs Biotin-C33B904 at EC80; antibody 15.63 nM; remark: listed apart in the source
human CD33-his protein [24] = target: T1, human CD33-his protein; experiment: competition ELISA, coated human CD33-his, vs Biotin-C33B904 at EC80; antibody 1.95 nM; remark: listed apart in the source

T1 sequence (P20138 18-259 limits assumed): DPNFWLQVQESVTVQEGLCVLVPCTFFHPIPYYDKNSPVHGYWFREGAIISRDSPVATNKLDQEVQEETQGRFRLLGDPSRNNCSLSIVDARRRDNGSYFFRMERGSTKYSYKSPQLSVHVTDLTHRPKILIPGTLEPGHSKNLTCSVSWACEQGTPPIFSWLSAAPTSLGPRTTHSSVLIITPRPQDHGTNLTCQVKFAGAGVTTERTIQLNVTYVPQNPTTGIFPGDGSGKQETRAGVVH

| Binder | OD450 (Biotin-C33B904 signal) (human CD33-his protein [1]) | OD450 (Biotin-C33B904 signal) (human CD33-his protein [2]) | OD450 (Biotin-C33B904 signal) (human CD33-his protein [3]) | OD450 (Biotin-C33B904 signal) (human CD33-his protein [4]) | OD450 (Biotin-C33B904 signal) (human CD33-his protein [5]) | OD450 (Biotin-C33B904 signal) (human CD33-his protein [6]) | OD450 (Biotin-C33B904 signal) (human CD33-his protein [7]) | OD450 (Biotin-C33B904 signal) (human CD33-his protein [8]) | OD450 (Biotin-C33B904 signal) (human CD33-his protein [9]) | OD450 (Biotin-C33B904 signal) (human CD33-his protein [10]) | OD450 (Biotin-C33B904 signal) (human CD33-his protein [11]) | OD450 (Biotin-C33B904 signal) (human CD33-his protein [12]) | OD450 (Biotin-C33B904 signal) (human CD33-his protein [13]) | OD450 (Biotin-C33B904 signal) (human CD33-his protein [14]) | OD450 (Biotin-C33B904 signal) (human CD33-his protein [15]) | OD450 (Biotin-C33B904 signal) (human CD33-his protein [16]) | OD450 (Biotin-C33B904 signal) (human CD33-his protein [17]) | OD450 (Biotin-C33B904 signal) (human CD33-his protein [18]) | OD450 (Biotin-C33B904 signal) (human CD33-his protein [19]) | OD450 (Biotin-C33B904 signal) (human CD33-his protein [20]) | further results |
| --- | --- | --- | --- | --- | --- | --- | --- | --- | --- | --- | --- | --- | --- | --- | --- | --- | --- | --- | --- | --- | --- |
| B1 | 2.46 | 2.35 | 2.35 | 2.35 | 2.28 | 2.46 | 2.12 | 2.61 | 2.2 | 2.44 | 2.48 | 2.35 |  |  |  |  |  |  |  |  |  |
| B2 | 2.81 | 2.4 | 2.29 | 2.57 | 2.21 | 2.47 | 2.36 | 2.87 | 2.42 | 2.31 | 2.94 | 2.39 |  |  |  |  |  |  |  |  |  |
| B3 | 1.61 | 2.33 | 2.33 | 2.07 | 2.25 | 2.2 | 2.27 | 1.6 | 2.43 | 2.29 | 1.96 | 2.33 |  |  |  |  |  |  |  |  |  |
| B4 | 0.34 | 2.13 | 2.51 | 1.14 | 2.45 | 1.64 | 2.56 | 0.26 | 2.51 | 2.61 | 0.5 | 2.25 |  |  |  |  |  |  |  |  |  |
| B5 | 0.26 | 1.76 | 2.24 | 0.95 | 2.14 | 1.05 | 2.16 | 0.19 | 1.99 | 2.07 | 0.45 | 1.78 |  |  |  |  |  |  |  |  |  |
| B6 |  |  |  |  |  |  |  |  |  |  |  |  | 2.34 | 2.56 | 2.66 | 0.28 | 2.73 | 1.55 | 0.95 | 0.68 | OD450 (Biotin-C33B904 signal) (human CD33-his protein [21]): 2.75; OD450 (Biotin-C33B904 signal) (human CD33-his protein [22]): 0.41; OD450 (Biotin-C33B904 signal) (human CD33-his protein [23]): 2.12; OD450 (Biotin-C33B904 signal) (human CD33-his protein [24]): 2.71 |
| B7 |  |  |  |  |  |  |  |  |  |  |  |  | 2.51 | 2.33 | 2.14 | 1.49 | 2.34 | 2.43 | 2.32 | 2.03 | OD450 (Biotin-C33B904 signal) (human CD33-his protein [21]): 2.39; OD450 (Biotin-C33B904 signal) (human CD33-his protein [22]): 1.78; OD450 (Biotin-C33B904 signal) (human CD33-his protein [23]): 2.55; OD450 (Biotin-C33B904 signal) (human CD33-his protein [24]): 2.36 |
| B8 |  |  |  |  |  |  |  |  |  |  |  |  | 2.6 | 2.62 | 2.22 | 1.7 | 2.49 | 2.5 | 2.4 | 2.16 | OD450 (Biotin-C33B904 signal) (human CD33-his protein [21]): 2.49; OD450 (Biotin-C33B904 signal) (human CD33-his protein [22]): 1.98; OD450 (Biotin-C33B904 signal) (human CD33-his protein [23]): 2.6; OD450 (Biotin-C33B904 signal) (human CD33-his protein [24]): 2.4 |

Reference: US20240124575A1 (SIMCERE ZAIMING PHARMACEUTICAL, published 2024)
